Measurements taken from PubChem BioAssay AID1645886 (National Center for Advancing Translational Sciences (NCATS), 2021).
“And” between values parts separate entries of the source, which are not always exact repeats. Identical values can stand only once. About 260 (1.6%) of roughly 16,000 compounds were called active. The shares of active, inactive and inconclusive entries below differ from those in the screen. Calls follow the shape of the dose curve; as a rule, active = well fitted inhibition curve with a large enough effect; inconclusive = small, poorly fitted or top-dose-only effect; inactive = no such curve, though single readings can be large or run the other way. Potencies of inconclusive entries are left out as doubtful fits.

Target: Rap guanine nucleotide exchange factor 4 (Homo sapiens) (UniProt Q8WZA2)
Experiment: Validation qHTS for antagonist of cAMP-regulated guanine nucleotide exchange factor 4 (EPAC2); also: nearly all actives have a fitted effect of over 40% in size;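 as to activity, negative = inhibition: 100% = activation by cAMP agonist control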
Details: EPAC2 Rap1B BODIPY-GDP exchange, fluorescence; activity, negative = inhibition: at 112 µM (top of the series)
Method in brief: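 Fluorescent exchange read-out: 100 nM EPAC2 with 250 nM RAP1B–BODIPY-GDP and 50 uM GDP; BODIPY-GDP release lowers fluorescence. Read at 480/540 nm every 5 min for 30 min at room temperature; normalized to 6.5 mM cAMP.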
Potency is read from the fitted curve at half-maximal effect; tags tell the direction and shape of the fitted curve.

Chain of UniProt Q8WZA2 (Q8WZA2 whole entry, looked up): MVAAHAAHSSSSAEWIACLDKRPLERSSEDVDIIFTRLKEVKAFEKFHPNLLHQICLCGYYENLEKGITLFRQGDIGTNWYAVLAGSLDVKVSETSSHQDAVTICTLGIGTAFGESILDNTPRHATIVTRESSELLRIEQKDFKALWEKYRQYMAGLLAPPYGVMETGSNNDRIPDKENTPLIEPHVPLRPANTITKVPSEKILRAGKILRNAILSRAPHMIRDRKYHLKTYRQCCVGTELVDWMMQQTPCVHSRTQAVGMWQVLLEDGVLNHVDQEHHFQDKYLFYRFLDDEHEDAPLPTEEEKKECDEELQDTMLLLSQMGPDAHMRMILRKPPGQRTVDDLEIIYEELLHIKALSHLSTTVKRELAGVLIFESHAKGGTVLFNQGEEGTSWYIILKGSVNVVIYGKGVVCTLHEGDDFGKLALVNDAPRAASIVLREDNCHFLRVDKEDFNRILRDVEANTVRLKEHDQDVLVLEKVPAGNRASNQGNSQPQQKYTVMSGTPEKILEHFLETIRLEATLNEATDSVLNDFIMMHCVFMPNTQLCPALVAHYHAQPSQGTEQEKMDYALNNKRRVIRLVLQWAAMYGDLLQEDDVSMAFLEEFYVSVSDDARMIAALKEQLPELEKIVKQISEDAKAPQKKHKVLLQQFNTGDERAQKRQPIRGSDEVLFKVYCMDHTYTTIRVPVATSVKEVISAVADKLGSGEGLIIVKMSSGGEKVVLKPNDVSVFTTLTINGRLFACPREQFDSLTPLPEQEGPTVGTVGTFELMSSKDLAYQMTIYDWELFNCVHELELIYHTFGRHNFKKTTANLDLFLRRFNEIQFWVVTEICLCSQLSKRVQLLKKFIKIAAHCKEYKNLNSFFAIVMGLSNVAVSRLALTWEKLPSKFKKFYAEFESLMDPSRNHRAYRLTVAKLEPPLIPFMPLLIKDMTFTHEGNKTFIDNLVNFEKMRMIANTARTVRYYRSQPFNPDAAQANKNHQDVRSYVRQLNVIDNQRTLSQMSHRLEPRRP

Structure (SMILES)	Potency	activity, negative = inhibition
Cc1cc(C)c2c(n1)NCCC2	inconclusive [inhibitor, partial curve, poor fit]	–
COc1ccccc1CN1CCOc2ccc(CN3CCC(Oc4cccnc4)CC3)cc2C1	inconclusive [inhibitor, single point]	–
CN(C)c1ccc(/C=C2\C(=O)Nc3ccccc32)cc1	inconclusive [inhibitor, single point]	–
CCCCOc1ccc(CC(=O)NO)cc1	inactive	–
Oc1c(Cl)cc(Cl)cc1Sc1cc(Cl)cc(Cl)c1O	active: 39.8 µM and active: 56.2 µM	–
CC(=O)Nc1cc(C(=O)N2CCc3c(Cl)cccc3C2)cc2ncn(CCc3ccccn3)c12	inconclusive [inhibitor, single point]	–
CNc1ccc(/C=C2\C=Cc3ccccc32)cc1	inconclusive [inhibitor, partial curve, poor fit]	–
CO/N=C(\C(=O)N[C@@H]1C(=O)N2C(C(=O)O)=C(CSc3nc(C)c(CC(=O)O)s3)CS[C@H]12)c1csc(N)n1	inactive	–
O=C(c1csnn1)N1CCC2(CCCN(c3ccccc3)C2)CC1	inconclusive [inhibitor, full curve, poor fit]	–
Cc1c(O)cccc1C(=O)N[C@@H](CSc1ccccc1)[C@H](O)CN1C[C@H]2CCCC[C@H]2C[C@H]1C(=O)NC(C)(C)C	inconclusive [inhibitor, partial curve, poor fit]	–
O=C(CN1CCN(Cc2ccc3c(c2)OCO3)CC1)N1c2ccccc2Sc2ccccc21	inactive	–
CC(C)C[C@@H](CN=[N+]=[N-])N1CCN(C)CCC1=O	inconclusive [inhibitor, single point]	–
COc1cccc(Cn2c(=O)cnc3cnc(N4CCOCC4)nc32)c1	inconclusive [inhibitor, partial curve, poor fit]	–
COC1=C(OC)C(=O)c2ccccc2C1=O	inconclusive [inhibitor, single point]	–
COc1ccc2[nH]cc(CCNc3ncnc4ccc(-c5cccc(C#N)c5)cc34)c2c1	inactive	–
CC1O[C@@H](Oc2c(-c3ccc(O)c(O)c3)oc3cc(O)cc(O)c3c2=O)C(O)C(O)C1O (some centres not stated)	inactive	–
CC(=O)N1CCC2(CCCN(c3ccc(-c4ccccc4)cc3)C2)CC1	inconclusive [inhibitor, partial curve, poor fit]	–
Cn1c2ccccc2c(=O)c2ccc(F)cc21	inconclusive [inhibitor, single point]	–
O=C(c1cnccn1)N1CCC2(CCCN(c3cccc(-c4ccccc4)c3)C2)CC1	inconclusive [inhibitor, partial curve, poor fit]	–
Cn1cccc1C(=O)N1CCC[C@@]2(CCN(c3ccccc3)C2)C1	inconclusive [inhibitor, partial curve, poor fit]	–
O=C(c1cccc(F)c1)N1CCC2(CCN(Cc3cc(C(F)(F)F)cc(C(F)(F)F)c3)CC2)CC1	inconclusive [inhibitor, full curve]	–

Structure (SMILES)	Potency	activity, negative = inhibition
COc1c(OC)c2occc2c2oc(=O)ccc12	inconclusive [inhibitor, partial curve, poor fit]	–
CC(C)=CCC/C(C)=C/COc1ccc2ccc(=O)oc2c1	inconclusive [inhibitor, partial curve, poor fit]	–
OC(c1cccnc1)c1ccc2c(c1)CN(Cc1cn(-c3ccccc3)nc1-c1ccccc1)CCO2 (configuration not stated)	inconclusive [inhibitor, single point]	–
Cc1cnc(-n2ncc(C(=O)NCCN3CCOCC3)c2C2CC2)nc1-c1cccs1	inconclusive [inhibitor, partial curve, poor fit]	–
O=S(=O)(c1ccccc1)N1CCC2(CC1)CN(C(c1ccccc1)c1ccccc1)C2	inconclusive [inhibitor, full curve]	–
N#Cc1cccc(NC(=O)N2CC3(CCN(C(=O)c4cc(C(F)(F)F)cc(C(F)(F)F)c4)CC3)C2)c1	inconclusive [inhibitor, partial curve, poor fit]	–
O=S1(=O)CCOC[C@H](c2ccccc2)N1Cc1ccccc1F	inconclusive [inhibitor, partial curve, poor fit]	–
COc1ccc2[nH]cc(CCNc3ccnc(-c4ccccc4Cl)n3)c2c1	–	inconclusive: -32.2% [inhibitor]
CC(C)=CCCC1(C)C=Cc2c(c(C)cc3c2[nH]c2ccccc23)O1 (configuration not stated)	inconclusive [inhibitor, partial curve]	–
O=C(c1cc(C(F)(F)F)cc(C(F)(F)F)c1)N1CCC2(CCCN(Cc3ccccc3)C2)CC1	inconclusive [inhibitor, partial curve]	–
CS(=O)c1ccc(-c2nc(-c3ccc(F)cc3)c(-c3ccncc3)[nH]2)cc1 (configuration not stated)	inconclusive [inhibitor, partial curve]	–
CN(Cc1ccco1)c1nc(-c2cccc(C#N)c2)nc2ccccc12	inactive	–
C[N+]1(C)[C@@H]2CC(OC(=O)[C@H](CO)c3ccccc3)C[C@H]1[C@H]1O[C@@H]12 (some centres not stated)	inactive	–
CC(Oc1ccccc1)C(=O)N[C@@H]1C(=O)N2[C@@H]1SC(C)(C)[C@@H]2C(=O)OCc1ccccc1 (some centres not stated)	inconclusive [inhibitor, full curve, poor fit]	–
C[N+]1(CC(=O)c2ccc(I)cc2)CCCc2ccccc21 (configuration not stated)	inconclusive [inhibitor, partial curve, poor fit]	–
COc1cc(-c2cc(C)c3cccc(OC)c3n2)cc2c1OCCN(C(=O)CC1NC(=O)c3ccccc31)C2 (configuration not stated)	inactive	–
CCN(CC)c1ccc(/C=C/c2ccncc2)cc1	inconclusive [inhibitor, single point]	–
CC(C)CN1CCC(=O)N([C@H](COc2ccccc2)c2ccccc2)CC1	inconclusive [inhibitor, full curve]	–
COc1cc(C)c2c(=O)cc(-c3ccccc3)oc2c1	inconclusive [inhibitor, full curve]	–
Cc1cc(C(=O)NCCN2Cc3ccccc3OC(c3ccccc3F)C2)no1 (configuration not stated)	inconclusive [inhibitor, single point]	–
COCCn1c(=O)c(-c2ccc(F)c(F)c2)nc2cncnc21	inconclusive [inhibitor, full curve, poor fit]	–

Structure (SMILES)	Potency	activity, negative = inhibition
COC(=O)N1CCC2(CC1)CN(c1ccccc1)C2	inconclusive [inhibitor, partial curve, poor fit]	–
O=S1(=O)CCO[C@H]2CCCC[C@@H]2N1Cc1ccccc1	inconclusive [inhibitor, full curve, poor fit]	–
O=C(NCCN1Cc2ccccc2OC(c2ccccc2F)C1)c1cncs1 (configuration not stated)	inactive	–
COc1cccc(CN(C)C(=O)c2cnn(-c3ncc4c(n3)-c3ccccc3CCC4)c2C)c1	inconclusive [inhibitor, partial curve]	–
Cc1c(C(=O)NCC(C)(C)N2CCOCC2)cnn1-c1ncc2c(n1)-c1ccccc1CC2	inconclusive [inhibitor, single point]	–
O=C1CCN(Cc2ccccc2)CCN1[C@H](CO)Cc1ccccc1	inconclusive [inhibitor, single point]	–
COc1cc(Br)c(C[N+]2(CCOCCC3CCC4CC3C4(C)C)CCOCC2)cc1OC (configuration not stated)	inactive	–
O=C(C1CC12CCN(Cc1cccc3cccnc13)CC2)N1CCN(Cc2cccs2)CC1 (configuration not stated)	inactive	–
CCCC(=O)O[C@]1(C(=O)CCl)[C@H](C)C[C@@H]2[C@H]3CCC4=CC(=O)C=C[C@]4(C)[C@@]3(F)C(=O)C[C@@]21C	inconclusive [inhibitor, single point]	–
CCOc1nc2cccc(C(=O)OC(C)OC(=O)OC3CCCCC3)c2n1Cc1ccc(-c2ccccc2-c2nn[nH]n2)cc1 (configuration not stated)	active: 56.2 µM	–
O=S(=O)(NCCCCCCc1ccccc1)c1cccc2c(Cl)cccc12	inconclusive [inhibitor, partial curve]	–
O=C(Nc1ccccc1)N1CC2(CCN(C(=O)c3cc(C(F)(F)F)cc(C(F)(F)F)c3)CC2)C1	inconclusive [inhibitor, partial curve, poor fit]	–
CCCCCCCCCCCCN1[C@@H](CC(=O)O)c2cc(C(F)(F)F)ccc2S1(=O)=O	inconclusive [inhibitor, full curve]	–
Cc1oc(-c2ccccc2NC(=O)C2CCC2)nc1CNC(=O)c1ccc2ccccc2c1	inconclusive [inhibitor, single point]	–
N#CCCn1c(=O)c(-c2ccccc2)nc2cnc(Oc3ccccc3)nc21	inconclusive [inhibitor, full curve, poor fit]	–
COc1ccc2c(c1)OCC(Cc1ccc(OC)c(OC)c1)C2=O (configuration not stated)	active: 44.7 µM	–
COCCn1c(=O)c(-c2cccs2)nc2cnc(Nc3ccccc3)nc21	inactive	–
COc1cc(=O)n2c(c1C(=O)N(C)Cc1cscn1)CCN(Cc1ccc3c(c1)OCCO3)CC2	inconclusive [inhibitor, partial curve, poor fit]	–
CC(C)Cc1cc(C(=O)NCC2Cc3cc(F)cc(-c4ccccn4)c3O2)no1 (configuration not stated)	inactive	–
COc1cccc(CN2C(=O)NC(C)(C3CCN(Cc4cccc(O)c4)CC3)C2=O)c1OC (configuration not stated)	inactive	–
